Data reported in PubChem BioAssay AID938 (National Center for Advancing Translational Sciences (NCATS), 2007).
Hit rate of the full screen: of about 73,000 compounds, about 1,800 (2.5%) were called active. The inconclusive results got no clear call from the source; some entries with a clear call stand among them for comparison. The call rests on the fitted dose curve; in most records, active means well fitted activation curve with a large enough effect; inconclusive means small, poorly fitted or top-dose-only effect; inactive means no such curve, though single readings can be large or run the other way. No potency is given beside an inconclusive call; the fits are too rough.

assay: qHTS Assay for Agonists of the Thyroid Stimulating Hormone Receptor: Activators of Intracellular cAMP Concentrations in Parental HEK 293; settings: parental HEK293 CNG cAMP sensor, membrane potential fluorescence; activation: at 57.1 µM (top of the series) unless noted; further: nearly all actives have a fitted effect of over 55% in size; on activation: % of control where 0% means no effect
Procedure, shortened: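 Parental HEK 293 cells stably expressing a cAMP-gated CNG channel were loaded with membrane potential dye containing 100 uM RO 20-1724 for 60 min. Compound added for 30 min; depolarization read as fluorescence intensity at 590 nm.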
Potency means the concentration at half of the fitted maximal effect; tags describe the fitted curve by direction and shape.

Row | SMILES | Potency | activation
1 | Nc1nc(N2CCCCC2)nc2ccccc12 | inactive | –
2 | O=C(O)c1ccc2c(c1)nnn2C1CCCCC1 | inactive | –
3 | COc1ccc(CNc2ncncc2-c2ccoc2)c(OC)c1 | active: 10 µM | –
4 | N#CCSc1nnc(Cc2cccc3ccccc23)n1C1CCCCC1 | active: 15.8 µM | –
5 | O=C(c1ccc(Cl)cc1)c1ccc(OCC(=O)N2CCOCC2)cc1 | inactive | –
6 | O=C(NCc1ccco1)c1cc(-c2cccnc2)nc2ccc(Cl)cc12 | active: 31.6 µM | –
7 | Cc1ccccc1C(=O)O | inactive | –
8 | O=C1NC2(CCOc3ccccc32)C(=O)N1CC(=O)N(Cc1ccccc1)C1CCS(=O)(=O)C1 (configuration not stated) | inconclusive [activator, partial curve] | –
9 | N#C/C(=C\c1ccc(O)c(O)c1)C(=O)NCCc1ccccc1 | inconclusive [activator, single point] | –
10 | CN1CCN(CC(C)(C)NS(=O)(=O)c2ccc(Cl)cc2)CC1 | inactive | –
11 | FC(F)(F)c1ccccc1-c1nc(NC2CC2)c2ccccc2n1 | inconclusive [activator, single point] | –
12 | CCOc1ncccc1C(=O)Nc1ccc2c(C)cc(=O)oc2c1 | inconclusive [activator, single point] | –
13 | Cc1onc(-c2c(Cl)cccc2Cl)c1C(N)=O | inconclusive [activator, single point] | –
14 | C=CCNC(=O)c1c(N)n(-c2ccc3c(c2)OCO3)c2nc3ccccc3nc12 | inactive | –
15 | Cn1c(=O)c2c(-c3ccccc3)n(-c3ccccc3O)cc2n(C)c1=O | inactive | –
16 | COC(=O)c1c(-c2cccnc2)csc1NC(=O)c1cc(C)on1 | inactive | –
17 | CC1(C)Cc2c(sc3nc(-c4cc5ccccc5o4)n(N)c(=O)c23)CO1 | inconclusive [activator, single point] | –
18 | CCOc1ccccc1OCCCCCc1c(C)n[nH]c1C | inactive | –
19 | CN(C)c1ncc2nc(CCc3ccccc3)c(=O)n(CCc3ccccc3)c2n1 | inconclusive [activator, single point] | –

Row | SMILES | Potency | activation
20 | CN(C)c1ncc2nc(-c3ccc(F)cc3)c(=O)n(C3CC3)c2n1 | inactive | –
21 | CC(C)n1c(C(O)c2ccccc2)nc2ccccc21 (configuration not stated) | inconclusive [activator, single point] | –
22 | CCC(=O)N1C(C(=O)N2CCCC2)CSC1c1ccc(OC)cc1 (configuration not stated) | inconclusive [activator, full curve] | –
23 | Cc1cc(C)c(C#N)c(SCC(=O)c2cccs2)n1 | inconclusive [activator, partial curve] | –
24 | COc1ccc(C(=O)N2CCN(Cc3cc(OC)c(O)c(OC)c3)CC2)cc1OC | inconclusive [activator, single point] | –
25 | C=CCSc1nc(O)c(CC)c(=O)n1C(C)CC (configuration not stated) | – | inactive: 20.1% [at 11.4 µM]
26 | O=C(COC(=O)C1CCCCC1C(=O)N1CCc2ccccc21)NCc1ccco1 (configuration not stated) | active: 20 µM | –
27 | O=C(COc1ccc(Cl)cc1)Nc1ccc(Cl)cn1 | inconclusive [activator, partial curve] | –
28 | O=C(c1ccc2ccccc2n1)N1CCN(c2ccccc2)CC1 | inconclusive [activator, single point] | –
29 | CCOC(=O)c1c(NC(=O)COC(=O)Cn2cnc3ccccc32)sc(C)c1C | inconclusive [activator, single point] | –
30 | Cc1ccc(N(C(C)C(=O)O)S(=O)(=O)c2c(C)[nH]c(=O)[nH]c2=O)cc1 (configuration not stated) | inconclusive [activator, single point] | –
31 | Cc1ccccc1Nc1nc(N)nc(COC(=O)c2cccn2C)n1 | inactive | –
32 | Cc1c(NC(=O)CSc2nnc(-c3ccco3)n2-c2ccccc2)c(=O)n(-c2ccccc2)n1C | inconclusive [activator, single point] | –
33 | COc1ccc(CC(=O)Nc2ccc(-c3noc(COc4ccccc4C)n3)cc2)cc1 | inactive | –
34 | COc1ccc(O[C@H]2C=C[C@@H](c3ccccc3)O[C@H]2COC(=O)CC/C(C)=N\O[C@@H](C)CN2CCCCc3nc(C)c(C)cc32)cc1 | – | inactive: 5.78% [at 11.4 µM]
35 | CC1CCN(C(=O)CSc2ccc3nnc(-c4ccccc4)n3n2)CC1 | inconclusive [activator, single point] | –
36 | CCOC(=O)Nc1ccc2c(c1)N(C(=O)N(C)C)c1ccccc1CC2 | inconclusive [activator, partial curve] | –
37 | O=C(NC1CCCCC1)c1cc2nc3c(c(C(F)(F)F)n2n1)CCCC3 | inconclusive [activator, full curve] | –
